Screen size: about 48,000 compounds; about 120 (0.25%) were called active. Roughly 4% stayed inconclusive and do not appear here. Calls follow the shape of the dose curve; as a rule, active = well fitted activation curve with a large enough effect; inconclusive = small, poorly fitted or top-dose-only effect, or another doubt; inactive = no such curve, though single readings can be large or run the other way. Some of the results follow.
assay: Primary qHTS for Identification of Small Molecule Activators of Huntingtin-Antisense Promoter Activity; settings: HEK293 HTT-AS promoter firefly luciferase reporter, 24 h; series mostly up to 57.5 µM; activity change, positive = activation: at the top concentration; also: nearly all actives have a fitted effect of over 55% in size
Summary of the method: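 Firefly luciferase readout (Dual-Glo, 10 min RT) after 24 h, 37 °C compound exposure (final up to 57.5 uM) of HEK293 reporter cells cultured 24 h beforehand; PTC124 at 50 uM final as control inhibitor; activity scaled vehicle 0%, zero RLU -100%.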

Activity change, positive = activation, inactive:
Cc1nc2nncn2c(Nc2ccccc2)c1C -27.5%
CCc1nn2c(=O)cc(COC(=O)c3cccc(NC(=O)c4cccs4)c3)nc2s1 14.4%
CCOC(=O)c1c(-c2ccccc2)csc1NC(=O)c1cc(=O)c2ccc(C)cc2o1 11.1% [at 11.5 µM, percent change from vehicle, -100% = no light]
Cc1ccccc1-n1nc(CO)c(C(=O)NCc2cccnc2)n1 -1.24%
CCc1cccc(C)c1NC(=O)Cn1cnc2c1c(=O)n(C)c(=O)n2C -30.1%
COCCNC(=O)Nc1cc(C(=O)NCc2ccc(C(C)C)cc2)ccc1N1CCCC1 -7.06%
COc1cc(C2NC(=O)c3c(sc4c3CCN(C)C4)N2)cc(Br)c1OC(=O)c1ccc(C)cc1 (stereo unspecified) -11.9%
CCOC(=O)C1CCN(C(c2ccc(SC)cc2)c2c(O)cc(C)n(Cc3ccco3)c2=O)CC1 (stereo unspecified) -8.45%
Cc1cccc(N2CCN(C(=O)C3CCCN(S(=O)(=O)c4ccc5c(c4)oc(=O)n5C)C3)CC2)c1C (stereo unspecified) -45.3%
Cc1ccc(-n2ncc(C(=O)NCc3cccs3)c2C2CCN(C(=O)OC(C)(C)C)CC2)cc1 -41.6%
Cc1ccc(CNC(=O)CN2C(=O)CCn3nc(-c4ccccc4)cc32)cc1 -19.8%
COc1ccccc1NC(=O)C(C)Sc1nnc2ccc3ccccc3n12 (stereo unspecified) -6.7%
Clc1ccc2c(c1)C(N1CCNCC1)=Nc1ccccc1O2 -11.6%
CCc1cccc2c(-c3ccccc3)nc(SCC(=O)Nc3ccccc3OC)nc12 -9.67%
CCCCC/C(C=O)=C\c1ccccc1 2.75%
CCCn1c(=O)c2sccc2n2c(CCCC(=O)NC3CCC(C)CC3)nnc12 (stereo unspecified) 2.56%
CCCCOc1ccc(C(=O)NCCc2csc(-c3cccc(F)c3)n2)cc1 -23.3%
CCc1ccccc1NC(=O)C1CCN(S(=O)(=O)c2ccccc2)CC1 0.992%
COc1ccc(CNC(=O)C(C)Sc2nc(-c3ccccc3)cc(C(F)(F)F)n2)cc1 (stereo unspecified) -21.7%
O=C(Cn1ccnc1[N+](=O)[O-])NCc1ccccc1 4.45%
COc1ccc(OCC(=O)N2CCC(c3nc4ccccc4s3)CC2)cc1 -18.8%
CCCCOc1ccc(C(=O)Nc2ccc3oc(-c4cccnc4)nc3c2)cc1 -11.6%
O=C(NC1CCCC1)c1ccc(CSc2nc3ccncc3n2Cc2cccc(F)c2)cc1 -21.7%
CCOc1cc(C(=O)NCc2ccc3c(c2)CCN3C(=O)c2ccc(F)cc2)cc(OCC)c1OCC -19.1%
O=C1c2ccccc2C(=O)C1c1ccccc1 -0.558%
Cc1ccc(CNC(=O)c2ccc3c(c2)c(C)c(C)n3Cc2ccccc2)o1 -19.1%
O=C(COc1ccccc1Cl)OCc1cc(=O)n2nc(C3CCCCC3)sc2n1 2.9%
CCn1ccc2cc(S(=O)(=O)N3CCC(C(=O)NCCc4ccccc4Cl)CC3)ccc21 -18.8%
CCc1ccc(C(=O)c2cnc3ccc(F)cc3c2S(=O)(=O)c2ccccc2)cc1 -48.1%
Cc1cccc(C(=O)Nc2ccc(-c3nc4ncccc4o3)cc2C)c1 21.9%
CC(C)OCCCNC(=O)c1cn(C)c2ccc(S(=O)(=O)N3CCCCCC3)cc2c1=O 6.29% [at 11.5 µM, percent change from vehicle, -100% = no light]
O=C(O)CCCc1c[nH]c2ccccc12 -17%
Cc1cccc(S(=O)(=O)c2cn(Cc3ccccc3)c3cc(N4CCOCC4)c(F)cc3c2=O)c1 -22%
COc1ccccc1Cn1cc(C(=O)c2ccc(Cl)cc2)c(=O)c2ccccc21 -60.4%
Cc1c2cnn(CC(=O)NCC(C)c3ccccc3)c(=O)c2c(C)n1Cc1cccc(Cl)c1 (stereo unspecified) -22.2%
Cc1ccc(C)c(NC(=O)Cn2nnc(C(=O)NCc3ccccc3Cl)c2N)c1 -9.11%
COc1cccc(C2NC(=O)c3n[nH]c(-c4cccs4)c32)c1 (stereo unspecified) -16%
COc1ccc(Br)cc1CNC(=O)c1cnc2sc(N3CCCC3)nn2c1=O -1.13%
CN1CCN(C(CNC(=O)c2ccccc2F)c2ccc3c(c2)OCO3)CC1 (stereo unspecified) -8.49%
O=C(Cn1c(=O)nc(-c2ccccc2)c2ccccc21)NCCc1ccc(Cl)cc1 -0.284%
COc1ccc(C(=O)N(Cc2cc(OC)c(OC)c(OC)c2)c2ccccn2)cc1 -25.8%
Cc1cc2[nH]c(=O)c(=O)[nH]c2cc1S(=O)(=O)N1CCN(c2cccc(C(F)(F)F)c2)CC1 1.39%
CCCCN(CC)CCNC(=O)CCn1cnc2onc(-c3ccc(F)cc3)c2c1=O -24%
COc1ccc(NC(=O)c2sc3nc(-c4cc5ccc(OC)cc5oc4=O)[nH]c(=O)c3c2C)cc1 -9.56%
Cc1cccc(-n2cc(-c3ccccc3)c3c(N4CCC(C)CC4)ncnc32)c1 -17.3%
COc1ccc(-c2cn3nc(N4CCCC(C(=O)Nc5cc(C)ccc5C)C4)sc3n2)cc1 (stereo unspecified) -13.5%
COc1cc(NC(=O)NCC2CCN(Cc3ccccc3Cl)CC2)cc(OC)c1OC 0.552%
O=C(O)CCc1nc(-c2ccccc2)c(-c2ccccc2)o1 -32%
COc1ccc(OC)c(CCNC(=O)CCc2cn(Cc3cc(C)ccc3C)c3ccccc23)c1 -28.6%
O=C(Cn1c(=O)c2cccn2c2ccc(F)cc21)N1CCN(c2ccccc2F)CC1 -12.4%
Cc1ccc(Cl)cc1NS(=O)(=O)c1ccc2c(c1)NC(=O)CCS2 -26.7%
CC(C)Nc1cc(C(F)(F)F)cc2nc(NC(=O)c3cccnc3)nn12 -9.33%
Cc1ccc(CNC(=O)c2c(Nc3ccccc3C)sc(C(=O)c3ccc(F)cc3)c2N)cc1 -27.2%
COc1ccc(CC(=O)NCC(c2cccs2)S(=O)(=O)c2ccc(F)cc2)cc1 (stereo unspecified) -18%
COc1cccc(-c2nn(C)c3sc(C(=O)NCc4ccc(OC)cc4OC)cc23)c1 0%
Cc1ccc(C(=O)N(Cc2ccco2)c2ccccn2)cc1 23.2%
COc1cc(NC(=O)c2nn(C)c3c2COc2ccccc2-3)cc(OC)c1OC -5.65%
CCOc1ccccc1NC(=O)C1=C(C)Nc2ncnn2C1c1ccco1 (stereo unspecified) -8.75%
COc1ccc(CCNC(=O)c2ccc(Cn3c(SCc4ccccc4)nc4cccnc43)cc2)cc1 -25.2%
CCc1cnc2c(c1SC(C(C)=O)C(=O)N(C)C)c(=O)n(C)c(=O)n2C (stereo unspecified) -5.98%
CC(C)c1cc(-c2nc(-c3ccc(Cl)cc3)no2)n[nH]1 15.5%
O=C(CCn1c(=O)c2ccccc2n(CC(=O)Nc2ccc(F)cc2)c1=O)NCCc1ccccc1 -12.4%
CCc1ccc(C2CC(=O)Nc3c2c(=O)nc2c(C)cccn32)cc1 (stereo unspecified) -8.88%
Cc1cccc(NC(=O)Cn2c(=O)n(Cc3ccccc3)c(=O)c3oc4ccccc4c32)c1C -11.6%
CC(C)c1ccc(NC(=O)c2ccc(CN3CC(=O)N4CCCCC4C3=O)cc2)cc1 (stereo unspecified) -3.05%
COc1ccccc1C(=O)Nc1ccc(C(=O)OCc2cc(=O)n3c4c(sc3n2)CCCC4)cc1 -2.29%
Cc1ccc(CNC(=O)c2c(Nc3c(C)cccc3C)sc(C(=O)c3ccccc3)c2N)cc1 -24.4%
CCOc1ccc(C2C(C(N)=O)=C(C)Nc3nc(SCc4ccccc4F)nn32)cc1 (stereo unspecified) -6.62%
COc1ccccc1NC(=O)c1cnn(-c2ccccc2)c1-n1cccc1 -10.4%
CCOC(=O)c1ccccc1NC(=O)c1c(C)oc2ncnc(N3CCOCC3)c12 -21.3%
COc1cccc(-n2c(=O)c3c(C)c(C)sc3n(Cc3ccccc3C#N)c2=O)c1 -30.3%
COc1ccc(-c2nc3sc(CCNC(=O)C(=O)Nc4ccccc4C#N)c(C)n3n2)cc1 3.9%
COCCCNC(=O)c1ccc(Cn2c(=O)c3ccccc3n(Cc3ccc(Cl)cc3)c2=O)cc1 -17.6%
Cc1cccc(-n2c(SCC(=O)Nc3ccc(C)c(C)c3)nc3n[nH]c(C)c3c2=N)c1 -43%
O=C(c1ccc2c(c1)N(Cc1ccc(Cl)cc1)C(=O)c1ccccc1S2(=O)=O)N1CCOCC1 -15.8%
CCCCC(CC)CNC(=O)CCCCCn1c(=O)[nH]c2ccsc2c1=O (stereo unspecified) -22.2%
CCc1ccc(-n2c(=O)c3ccccc3n(Cc3ccccc3C#N)c2=O)cc1 -14.9%
CC(C)c1ccc(NC(=O)c2ccc(=O)n(Cc3ccccc3)c2)cc1 -20.6%
COc1cccc(C2C(C(N)=O)=C(C)Nc3ncnn32)c1 (stereo unspecified) 5.68%
O=C(CSc1nc2c(oc3ccccc32)c(=O)n1-c1ccccc1)Nc1ccc(F)c(Cl)c1 -8.4%
COc1ccc(OC)c(NC(=O)C2=C(C)C(=O)OC23CCN(C(C)C)CC3)c1 -5.94%
Fc1ccc(N2CCN(c3ncnc4onc(-c5ccc(Cl)cc5)c34)CC2)cc1 -25.4%
CCOC(=O)c1c(NC(C)=O)c2c3c(sc2n1Cc1cc(C)ccc1C)CCCC3 -6.66%
Cc1ccc(N(CC2=NCCN2)c2cccc(O)c2)cc1
CCOc1ccccc1NC(=O)Cn1c(=O)n(Cc2ccco2)c(=O)c2sc3ccccc3c21 -14.9%
CN(C)c1ccc(CNC(=O)c2ccc3nc(Cc4ccccc4)oc3c2)cc1 -27.1%
O=C(O)CCn1ccc2cc(S(=O)(=O)N3CCCCCC3)ccc21 -15.7%
CSc1ccc(CCNC(=O)c2csc3c2CCCCC3)cc1 -9.11%
Cc1cc(C)c(NC(=O)C(=O)NCCc2csc(-c3ccc(F)cc3)n2)c(C)c1 -32.9%
COc1cc(Nc2nc(-c3ccc(OC)c(OC)c3)nc3ccccc23)cc(OC)c1 -39.7%
Cc1cccn2c(=O)c(C(=O)N3CCN(c4ccccc4)CC3)cnc12 15.6%
COc1ccccc1Nc1c2c(nc3ccc(NC(=O)c4ccc(N(C)C)cc4)cc13)CCCC2 -42.4%
Cc1ccc(C(=O)c2c(N)c(C(=O)Nc3cccc(C(F)(F)F)c3)c3ccccn23)cc1 6.59%
Cc1ccc(-n2c(=O)c3oc4ccccc4c3n(Cc3cccc(F)c3)c2=O)cc1C -37.5%
Cc1nc2nc(NCc3ccc(Br)cc3)[nH]n2c(=O)c1Cc1ccccc1 -24.9%
CCCCOc1ccc(C(=O)Nc2cccc(-c3nc4ccccc4o3)c2C)cc1 -12.4%
